This passage reports Kd, koff and kon results from EP4620974A1 (Oricell Therapeutics Co., Ltd., dated 2025).

In the assay the target is T1, human AFP158-166/HLA-A02*01* complex (human).
T1 construct: Soluble complex used as analyte in BLI; source and construct not described; also called AFP/HLA02; human AFP158 peptide/MHC complex
Kind of assay: BLI (ForteBio AHC sensor), antibody captured, complex in solution. In general terms: BLI is a label-free optical method that tracks binding on a fibre tip over time.

Residue numbers refer to the chain shown, from its start.

B1: No.3 (a VHH-Fc antibody containing the nucleotide sequence of the VHH antibody No.3) (Fc fusion)
chain: EVQLVESGGGLVQPGGSLRLSCAASGRTFSSYAMGWFRQAPGKGRELVAAISRTGGSTYYPDSVEGRFTISRDNAKRMVYLQMNSLRAEDTAVYYCAADLYYGPIITEGNYDYWGQGTQVTVSSAAA[human IgG1 Fc omitted here]
The Kd is the constant that tells how readily two partners part at equilibrium. Read a low Kd as a tighter complex. By koff is commonly meant a measure of how fast the partners let go of each other. A word on the kon: it is the rate constant with which the complex forms. On to B1, for which binding was put at a Kd of 0.259 nM, the koff came to 1.15e-05 s⁻¹ and the kon came to 44200 M⁻¹ s⁻¹.

B2: 1C11 (a VHH-Fc antibody containing the nucleotide sequence of the VHH antibody 1C11) (Fc fusion)
chain: B1 chain with F29L, S31R
notes: also called candidate VHH-Fc antibody 1C11
The molecule B2 gave a Kd of 1.21 nM, a koff of 0.00012 s⁻¹ and an on-rate (kon) of 99400 M⁻¹ s⁻¹.

B3: No.4 (a VHH-Fc antibody containing the nucleotide sequence of the VHH antibody No.4) (Fc fusion)
chain: B1 chain with R27S, T28I, S31T
B3 yielded a Kd of 0.783 nM, a koff of 3.38e-05 s⁻¹ and a kon of 43200 M⁻¹ s⁻¹.

B4: No.7 (VHH-Fc antibody of the VHH antibody No. 7) (Fc fusion)
chain: B1 chain with F29L, S31R, D112N
For B4, the dissociation constant Kd worked out at 1.16 nM, the koff amounted to 6.17e-05 s⁻¹ and the kon is 53400 M⁻¹ s⁻¹.

B5: 1C4 (a VHH-Fc antibody containing the nucleotide sequence of the VHH antibody 1C4) (Fc fusion)
chain: B1 chain with S31R
notes: also called candidate VHH-Fc antibody 1C4
As for B5, the Kd turned out to be 0.865 nM, the koff was 8.72e-05 s⁻¹ and the on-rate (kon) is 101000 M⁻¹ s⁻¹.

B6: 1D12 (a VHH-Fc antibody containing the nucleotide sequence of the VHH antibody 1D12) (Fc fusion)
chain: B1 chain with F29L, S31P, D112N
notes: also called candidate VHH-Fc antibody 1D12
In the case of B6, the Kd came out at 3.02 nM, the dissociation rate constant (koff) came out at 0.000274 s⁻¹ and the on-rate constant (kon) stood at 90700 M⁻¹ s⁻¹.

B7: No.29 (a VHH-Fc antibody containing the nucleotide sequence of the VHH antibody No.29) (Fc fusion)
chain: B1 chain with R27N, Q82H, D112N
As for B7, the affinity, expressed as Kd, was 0.811 nM; the koff amounted to 6.16e-05 s⁻¹; the on-rate constant (kon) stood at 75900 M⁻¹ s⁻¹.

B8: No.8 (VHH-Fc antibody of the VHH antibody No. 8) (Fc fusion)
chain: B1 chain with R27D, F29L, S31R, D112N
On to B8, for which the dissociation constant Kd was determined as 1.43 nM, the dissociation rate constant (koff) came out at 9.33e-05 s⁻¹ and the on-rate constant (kon) was found to be 65300 M⁻¹ s⁻¹.

B9: No.15 (VHH-Fc antibody of the VHH antibody No. 15) (Fc fusion)
chain: EVQLVESGGGLVQPGGSLRLSCAASGLIFSRYYMGWFRQAPGKGRELVAGITRSGGGTYYPDSVEGRFTISRDNAKRMVYLQMNSLRAEDTAVYYCAAEPAGYYQENYDYWGQGTQVTVSSAAA[human IgG1 Fc omitted here]
With B9, the affinity, expressed as Kd, was 2 nM; the koff was determined as 0.000412 s⁻¹; the association rate constant (kon) came out at 206000 M⁻¹ s⁻¹.

B10: No.17 (a VHH-Fc antibody containing the nucleotide sequence of the VHH antibody No.17) (Fc fusion)
chain: EVQLVESGGGLVQPGGSLRLSCAASGLIFSNDYMGWFRQAPGKGRELVATISTRGGTYYPHNVEGRFIIIRDNDKRMVYLLMNSLRAEDTAVYYCAADSIIGYATEYYYCCQGSKVTVSSAAA[human IgG1 Fc omitted here]
With B10, the equilibrium dissociation constant (Kd) is under 0.001 nM, the koff was under 1e-07 s⁻¹ and the kon was 67500 M⁻¹ s⁻¹.

B11: 1B3 (a VHH-Fc antibody containing the nucleotide sequence of the VHH antibody 1B3) (Fc fusion)
chain: EVQLVESGGGLVQPGGSLRLSCAASGFTFSNYVMGWFRQAPGKGRELVATISPSGGSTFYPDSVEGRFTISRDNAKRMVYLQMNSLRAEDTAVYYCAAKDIYRPALDYDYWGQGTQVTVSSAAA[human IgG1 Fc omitted here]
notes: also called candidate VHH-Fc antibody 1B3
On to B11, for which the dissociation constant Kd amounted to 0.504 nM, the koff was found to be 7.01e-05 s⁻¹ and the kon came out at 139000 M⁻¹ s⁻¹.

B12: 2F9 (a VHH-Fc antibody containing the nucleotide sequence of the VHH antibody 2F9) (Fc fusion)
chain: EVQLVESGGGLVQPGGSLRLSCAASGRILSRYAMGWFRQAPGKGRELVATISARGSSTYYPDSVEGRFTISRDNAKRMVYLQMNSLRAEDTAVYYCAANDITYTQATYDYWGQGTQVTVSSAAA[human IgG1 Fc omitted here]
notes: also called candidate VHH-Fc antibody 2F9
B12 had a Kd of 2.06 nM, a koff of 0.00018 s⁻¹ and an on-rate (kon) of 87500 M⁻¹ s⁻¹.

B13: No.24 (a VHH-Fc antibody containing the nucleotide sequence of the VHH antibody No.24) (Fc fusion)
chain: B12 chain with R54S, S56G, S57T, N99A, T102Y, Y103S, T104S, Q105D, T107D, D109N
B13 showed a Kd of under 0.001 nM, a koff of under 1e-07 s⁻¹ and an on-rate (kon) of 42800 M⁻¹ s⁻¹.
